Reference: the supplement of paper PMC8728848
The other results are listed elsewhere or left out.

What was measured:
Experiment in all cases: glycan array binding signal (z-score within array); higher = stronger binding
Conditions in all cases: glycan notation: IUPAC condensed, linker removed
[1] = biological target: Gal(b1-3)GlcNAc(b1-3)Gal(b1-4)GlcNAc(b1-2)[Gal(b1-3)GlcNAc(b1-3)Gal(b1-4)GlcNAc(b1-6)]Man(a1-6)[Gal(b1-3)GlcNAc(b1-3)Gal(b1-4)GlcNAc(b1-2)Man(a1-3)]Man(b1-4)GlcNAc(b1-4)[Fuc(a1-6)]GlcNAc
In short: (§1)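 Columns mapping to the same glycan were averaged after glycan names were converted to IUPAC-condensed notation. The data come from 3228 arrays in the Consortium for Functional Glycomics database, limited to those with an available protein sequence. Binding is reported as a within-array Z-score averaged across arrays of one protein sequence and across linkers.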

[2] = biological target: Gal(b1-3)GlcNAc(b1-3)Gal(b1-4)GlcNAc(b1-3)Gal(b1-4)GlcNAc(b1-2)[Gal(b1-3)GlcNAc(b1-3)Gal(b1-4)GlcNAc(b1-3)Gal(b1-4)GlcNAc(b1-6)]Man(a1-6)[Gal(b1-3)GlcNAc(b1-3)Gal(b1-4)GlcNAc(b1-3)Gal(b1-4)GlcNAc(b1-2)Man(a1-3)]Man(b1-4)GlcNAc(b1-4)[Fuc(a1-6)]GlcNAc
In short: as §1

[3] = biological target: Gal(b1-3)GlcNAc(b1-3)Gal(b1-4)GlcNAc(b1-6)[Gal(b1-3)GlcNAc(b1-3)]Gal(b1-4)Glc
In short: as §1

[4] = biological target: Gal(b1-3)GlcNAc(b1-3)Gal(b1-4)[Fuc(a1-3)]GlcNAc
In short: as §1

[5] = biological target: Gal(b1-3)GlcNAc(b1-3)Gal(b1-4)[Fuc(a1-3)]GlcNAc(b1-6)[Gal(b1-3)GlcNAc(b1-3)]Gal(b1-4)Glc
In short: as §1

[6] = biological target: Gal(b1-3)GlcNAc(b1-3)GalNAc
In short: as §1

[7] = biological target: Gal(b1-3)GlcNAc(b1-6)Gal(b1-4)GlcNAc
In short: as §1

[8] = biological target: Gal(b1-3)GlcNAc(b1-6)GalNAc
In short: as §1

[9] = biological target: Gal(b1-3)GlcNAc(b1-6)[Gal(b1-3)]GalNAc
In short: as §1

Gal(b1-3)GlcNAc6S = biological target: Gal(b1-3)GlcNAc6S
In short: as §1

[10] = biological target: Gal(b1-3)[Fuc(a1-4)]GlcNAc
In short: as §1

[11] = biological target: Gal(b1-3)[Fuc(a1-4)]GlcNAc(b1-2)Man
In short: as §1

[12] = biological target: Gal(b1-3)[Fuc(a1-4)]GlcNAc(b1-2)Man(a1-3)[Gal(b1-3)[Fuc(a1-4)]GlcNAc(b1-2)Man(a1-6)]Man(b1-4)GlcNAc(b1-4)[Fuc(a1-6)]GlcNAc
In short: as §1

[13] = biological target: Gal(b1-3)[Fuc(a1-4)]GlcNAc(b1-3)Gal(b1-3)[Fuc(a1-4)]GlcNAc
In short: as §1

[14] = biological target: Gal(b1-3)[Fuc(a1-4)]GlcNAc(b1-3)Gal(b1-4)[Fuc(a1-3)]GlcNAc
In short: as §1

[15] = biological target: Gal(b1-3)[Fuc(a1-4)]GlcNAc(b1-6)GalNAc
In short: as §1

[16] = biological target: Gal(b1-3)[GlcNAc(b1-6)]GalNAc
In short: as §1

[17] = biological target: Gal(b1-3)[Neu5Ac(a2-6)]GalNAc
In short: as §1

[18] = biological target: Gal(b1-3)[Neu5Ac(a2-6)]GlcNAc(b1-4)Gal(b1-4)Glc
In short: as §1

[19] = biological target: Gal(b1-3)[Neu5Ac(b2-6)]GalNAc
In short: as §1

Gal(b1-4)Gal = biological target: Gal(b1-4)Gal
In short: as §1

[20] = biological target: Gal(b1-4)GalNAc(a1-3)[Fuc(a1-2)]Gal(b1-4)GlcNAc
In short: as §1

[21] = biological target: Gal(b1-4)GalNAc(b1-3)[Fuc(a1-2)]Gal(b1-4)GlcNAc
In short: as §1

Gal(b1-4)Glc = biological target: Gal(b1-4)Glc
In short: as §1

Gal(b1-4)Glc6S = biological target: Gal(b1-4)Glc6S
In short: as §1

Gal(b1-4)GlcNAc = biological target: Gal(b1-4)GlcNAc
In short: as §1

[22] = biological target: Gal(b1-4)GlcNAc(a1-6)Gal(b1-4)GlcNAc
In short: as §1

Gal(b1-4)GlcNAc(b1-2)Man = biological target: Gal(b1-4)GlcNAc(b1-2)Man
In short: as §1

[23] = biological target: Gal(b1-4)GlcNAc(b1-2)Man(a1-3)Man(b1-4)GlcNAc(b1-4)GlcNAc
In short: as §1

[24] = biological target: Gal(b1-4)GlcNAc(b1-2)Man(a1-3)[Gal(b1-4)GlcNAc(b1-2)Man(a1-6)]Man(b1-4)GlcNAc(b1-4)GlcNAc
In short: as §1

[25] = biological target: Gal(b1-4)GlcNAc(b1-2)Man(a1-3)[Gal(b1-4)GlcNAc(b1-2)Man(a1-6)]Man(b1-4)GlcNAc(b1-4)[Fuc(a1-6)]GlcNAc
In short: as §1

[26] = biological target: Gal(b1-4)GlcNAc(b1-2)Man(a1-3)[Gal(b1-4)GlcNAc(b1-2)Man(a1-6)][Gal(b1-4)GlcNAc(b1-4)]Man(b1-4)GlcNAc(b1-4)[Fuc(a1-6)]GlcNAc
In short: as §1

[27] = biological target: Gal(b1-4)GlcNAc(b1-2)Man(a1-3)[Gal(b1-4)GlcNAc(b1-2)Man(a1-6)][GlcNAc(b1-4)]Man(b1-4)GlcNAc(b1-4)[Fuc(a1-6)]GlcNAc
In short: as §1

[28] = biological target: Gal(b1-4)GlcNAc(b1-2)Man(a1-3)[GlcNAc(b1-2)Man(a1-6)]Man(b1-4)GlcNAc(b1-4)GlcNAc
In short: as §1

[29] = biological target: Gal(b1-4)GlcNAc(b1-2)Man(a1-3)[GlcNAc(b1-4)][Gal(b1-4)GlcNAc(b1-2)Man(a1-6)]Man(b1-4)GlcNAc(b1-4)GlcNAc
In short: as §1

[30] = biological target: Gal(b1-4)GlcNAc(b1-2)Man(a1-3)[Man(a1-6)]Man(b1-4)GlcNAc(b1-4)GlcNAc
In short: as §1

[31] = biological target: Gal(b1-4)GlcNAc(b1-2)Man(a1-6)Man(b1-4)GlcNAc(b1-4)GlcNAc
In short: as §1

[32] = biological target: Gal(b1-4)GlcNAc(b1-2)Man(a1-6)[GlcNAc(b1-2)Man(a1-3)]Man(b1-4)GlcNAc(b1-4)GlcNAc
In short: as §1

B1: PX9937J-pdi-523-26-523 (Parabacteroides distasonis) (protein)
chain: EPVSSISDANYWKSPDLFKAFNIGLHGLLRSQSSYNIFVLGEPRSDIYGDQPFGGEATQGVERFSYNTINAEFTGISNFANFYTTLNQINLMIRRTNETDLLGEAEKNYYLGQAYGLRAYIYFHLLRSWGDVIITTEPTLGSELDISHLDKAASPASEVMDLIKKDIDASEKAFGGDYSYKQGKCYWSKPATLMLKGEVYLWSGRQMGGGTGDYTVAKTALQDLQQNGNLKLQEKFTDVFSFNNKENSEMIFALHSGKEDDFMMWRDYNWRNNMVPQREYMAGYCDETGTPFLEIPGYNLQGLMRYQVKKDHYLKSFREGDTRLKGTLKAVYKKHEDGTLEYIAPIQYKFQGTTLEGSNERSWYDDYPIYRYADALLLLAEAKALLGEDPSTEINAVRERAYGSEYFNAHKNEVAYPNDKGSFYNDNPFEAGDENVMEAILKERLREFFFEGKRWYDLRRFGKDYVLKYTTAQESRLLWPINEGALTNNPALKQTPGY
glycan array binding signal (z-score) [1]: 1.49
glycan array binding signal (z-score) [2]: 0.518
glycan array binding signal (z-score) [3]: 0.461
glycan array binding signal (z-score) [4]: -0.102
glycan array binding signal (z-score) [5]: -0.698
glycan array binding signal (z-score) [6]: -0.708
glycan array binding signal (z-score) [7]: -0.374
glycan array binding signal (z-score) [8]: 0.249
glycan array binding signal (z-score) [9]: 0.577
glycan array binding signal (z-score) (Gal(b1-3)GlcNAc6S): -0.107
glycan array binding signal (z-score) [10]: -0.24
glycan array binding signal (z-score) [11]: 0.139
glycan array binding signal (z-score) [12]: 0.959
glycan array binding signal (z-score) [13]: 0.257
glycan array binding signal (z-score) [14]: -0.34
glycan array binding signal (z-score) [15]: -0.41
glycan array binding signal (z-score) [16]: -0.715
glycan array binding signal (z-score) [17]: -0.22
glycan array binding signal (z-score) [18]: -0.565
glycan array binding signal (z-score) [19]: -0.659
glycan array binding signal (z-score) (Gal(b1-4)Gal): -0.185
glycan array binding signal (z-score) [20]: -0.573
glycan array binding signal (z-score) [21]: -0.766
glycan array binding signal (z-score) (Gal(b1-4)Glc): -0.269
glycan array binding signal (z-score) (Gal(b1-4)Glc6S): -0.421
glycan array binding signal (z-score) (Gal(b1-4)GlcNAc): 0.078
glycan array binding signal (z-score) [22]: -0.341
glycan array binding signal (z-score) (Gal(b1-4)GlcNAc(b1-2)Man): 0.302
glycan array binding signal (z-score) [23]: -0.69
glycan array binding signal (z-score) [24]: -0.105
glycan array binding signal (z-score) [25]: 0.382
glycan array binding signal (z-score) [26]: 0.15
glycan array binding signal (z-score) [27]: -0.8
glycan array binding signal (z-score) [28]: -0.573
glycan array binding signal (z-score) [29]: -0.132
glycan array binding signal (z-score) [30]: -0.499
glycan array binding signal (z-score) [31]: -0.278
glycan array binding signal (z-score) [32]: 0.751
